# Assay results as given in the supplement of paper PMC11283458.
# This is one part of the list. Most values come without repeats; read them as rough.
# Assays:
# Assay in all cases: delta PSI of alternative exon relative to 0.4% DMSO control (RT-PCR) (percentage points); higher = more exon inclusion
# Conditions in all cases: concentration: not stated (optimised per compound); Neuro-2a
# [1] = system: Ergic3 microexon (endogenous)
# Experimental: (§1)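 Reads PSI of the Mef2d reporter microexon and of endogenous mouse neural alternative exons. dPSI is relative to the 0.4% DMSO control, single replicate.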
# [2] = system: Mgrn1 alternative exon (endogenous)
# Experimental: as §1
# [3] = system: Zdhhc20 alternative exon (endogenous)
# Experimental: as §1
# [4] = system: Mast2 alternative exon (endogenous)
# Experimental: as §1
# [5] = system: Asph alternative exon (endogenous)
# Experimental: as §1
# [6] = system: Trappc9 microexon (endogenous)
# Experimental: as §1
# 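Also: exons read include endogenous Mef2d, Mast2, Ergic3 and Trappc9 microexons plus the longer neural-regulated Zdhhc20, Mgrn1 and Asph cassette exons, alongside the reporter microexon.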
Structure (SMILES),delta PSI of alternative exon [1],delta PSI of alternative exon [2],delta PSI of alternative exon [3],delta PSI of alternative exon [4],delta PSI of alternative exon [5],delta PSI of alternative exon [6]
CC(/C=C/C(=O)NO)=C\[C@@H](C)C(=O)c1ccc(N(C)C)cc1 [Trichostatin A],8.29,2.13,24.5,–,–,–
N#Cc1c(O)nsc1Nc1ccc(Cl)cc1,-17.5,18.4,-5.32,–,–,–
c1ccc(C2=Nc3ccccc3NC(c3ccccc3)C2)cc1 (stereo unspecified),-1.15,1.58,-0.229,–,–,–
CC(=O)Nc1ccc(-c2ccc(NC(C)=O)cc2)cc1,-7.4,-3.65,3.08,-0.471,–,–
O=C(Nc1cccc([N+](=O)[O-])c1)C(C(=O)Nc1cccc([N+](=O)[O-])c1)C12CC3CC(CC(C3)C1)C2,-14,7.78,0.503,–,–,–
COc1cc2c(cc1O)CC[C@@H]1[C@@H]2CC[C@]2(C)[C@@H](O)CC[C@@H]12 [2-Methoxyestradiol],-18.1,5.1,-1.77,-4.47,–,–
Cn1cc(CNCC2CCN(c3ncc(C(=O)NO)cn3)CC2)c2ccccc21,9.18,0.345,20.2,–,–,–
O=C(CCCCCN1C(=O)c2cccc3cccc(c23)C1=O)NO [Scriptaid],6.1,-5.38,20.5,–,–,–
O=C(/C=C/c1ccc(CN(CCO)CCc2c[nH]c3ccccc23)cc1)NO,9.68,9.32,22.2,16.9,–,–
Cc1cc(C(=O)NOCCO)c(Nc2ccc(I)cc2F)n(C)c1=O,-1.71,8.39,15.9,–,–,–
CCCNC(=O)Nc1ccc(OC(F)(F)F)cc1,-9.96,10.1,2.49,1.49,–,–
N#CCc1ccc(Nc2nc(Nc3cc(C4CCC4)[nH]n3)c3ccccc3n2)cc1,6.79,4.28,20.7,27.4,–,–
Cc1ccc(S(=O)(=O)Nc2ccc3ncccc3c2)cc1,0.0478,16,27.8,24.2,–,–
CCN(CC)Cc1ccc2cc(COC(=O)Nc3ccc(C(=O)NO)cc3)ccc2c1 [Givinostat],15.7,-3.57,21.9,–,–,–
COc1cc(/C=C/C(=O)N2CCC=CC2=O)cc(OC)c1OC [Piperlongumine],–,–,-14.7,–,-8.71,-0.631
O=S(=O)(N/N=C/c1cc(Cl)cc(Cl)c1O)c1ccc(Cl)cc1,-23.6,25.2,23.8,–,–,–
Cc1[nH]c2ccccc2c1CCNCc1ccc(/C=C/C(=O)NO)cc1 [Panobinostat],11.5,1.09,23,–,–,–
S=C(NN=Cc1ccccn1)NC1CC2C=CC1C2 (stereo unspecified),-1.78,5,2.11,–,–,–
COc1ccc(C=Cc2nc3ccccc3s2)cc1OC,-2.37,3.93,-2.16,–,–,–
O=C1OC(CC(=O)c2csc3ccccc23)c2ccccc21 (stereo unspecified),-7.88,4.14,0.284,–,–,–
O=C(Nc1ccc2[nH]nc(-c3ccncc3)c2c1)[C@@H]1CCN(CC(=O)N2CCN(c3ccc(-c4ncccn4)cc3)CC2)C1,-2,5.72,11.2,–,–,–
CCCCc1nc2cc(/C=C/C(=O)NO)ccc2n1CCN(CC)CC,12.5,3.92,21.5,–,–,–
C(=C\c1ccccc1)/C(=N/Nc1ccccc1)c1ccccc1,-4.27,-2.99,3.44,–,–,–
NC(=NOC(=O)c1c(F)cccc1Cl)c1ccc([N+](=O)[O-])o1,-10.7,16.9,-2.56,–,–,–
CC(=O)Nc1cccc(-n2c(=O)n(C3CC3)c(=O)c3c(Nc4ccc(I)cc4F)n(C)c(=O)c(C)c32)c1 [Trametinib],-0.125,9.89,19.2,23.9,–,–
O=C(CCCCCCC(=O)Nc1ccccc1)NO [Vorinostat],17,4.99,23.5,17.9,–,–
